Assay results: patent US11453869B2 (priority 2020, dated 2022)

Target: wild type ACE2 ECD-Fc fusion protein (Homo sapiens, UniProt Q9BYF1)
Type: biochemical

wild type ACE2 ECD-Fc fusion protein, sequence (Q9BYF1 other isoform, or with tags, fused parts or gaps): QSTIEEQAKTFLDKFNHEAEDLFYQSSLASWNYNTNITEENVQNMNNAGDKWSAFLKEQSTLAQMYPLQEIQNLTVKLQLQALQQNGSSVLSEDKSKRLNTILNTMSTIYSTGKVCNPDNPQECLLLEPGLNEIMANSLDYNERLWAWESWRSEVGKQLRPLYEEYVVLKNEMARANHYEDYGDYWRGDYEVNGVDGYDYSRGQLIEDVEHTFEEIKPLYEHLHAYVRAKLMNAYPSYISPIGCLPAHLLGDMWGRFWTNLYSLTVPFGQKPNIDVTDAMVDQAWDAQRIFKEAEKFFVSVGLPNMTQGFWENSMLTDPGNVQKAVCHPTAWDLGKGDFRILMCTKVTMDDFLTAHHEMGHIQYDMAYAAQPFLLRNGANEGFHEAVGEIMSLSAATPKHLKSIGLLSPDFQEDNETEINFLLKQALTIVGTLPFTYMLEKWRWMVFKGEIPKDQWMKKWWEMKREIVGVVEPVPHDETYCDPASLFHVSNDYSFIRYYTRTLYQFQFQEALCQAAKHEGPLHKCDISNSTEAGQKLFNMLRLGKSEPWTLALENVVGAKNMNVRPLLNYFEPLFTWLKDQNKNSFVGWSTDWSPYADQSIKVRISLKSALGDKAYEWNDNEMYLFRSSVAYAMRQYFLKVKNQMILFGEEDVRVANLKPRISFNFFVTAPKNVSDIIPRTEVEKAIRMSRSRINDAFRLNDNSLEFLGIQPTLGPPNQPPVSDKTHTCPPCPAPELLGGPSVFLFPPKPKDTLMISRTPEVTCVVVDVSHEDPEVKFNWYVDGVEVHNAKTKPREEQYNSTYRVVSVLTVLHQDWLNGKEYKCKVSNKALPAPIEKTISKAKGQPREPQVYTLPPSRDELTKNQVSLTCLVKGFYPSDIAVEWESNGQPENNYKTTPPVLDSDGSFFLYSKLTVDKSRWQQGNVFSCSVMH

CC(C)C[C@H](N[C@@H](Cc1cncn1Cc1cc(Cl)cc(Cl)c1)C(=O)O)C(=O)O [MLN-4760]
RFU in the presence of ACE2 inhibitor: significantly reduced
